Measured values from PubChem BioAssay AID1240 (Sanford-Burnham Center for Chemical Genomics, 2008).
Hit rate of the full screen: of about 50,000 compounds, about 800 (1.6%) showed an effect of 50% or more. The list shows a part of the results.

target: Bcl-2-like protein 10 (Homo sapiens) (UniProt Q9HD36); assay: TR3 peptide-Bcl-B binding displacers, biochemical primary FP assay, phenotype converters (AID 1240); details: GST-Bcl-B / FITC-TR3 peptide fluorescence polarization; stronger effect = higher value; compound at 3.75 mg/L;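 also: 0% = Bcl-B with tracer peptide and DMSO and 100% = tracer peptide lacking Bcl-B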
Sequence of UniProt Q9HD36 (Q9HD36 whole entry, looked up): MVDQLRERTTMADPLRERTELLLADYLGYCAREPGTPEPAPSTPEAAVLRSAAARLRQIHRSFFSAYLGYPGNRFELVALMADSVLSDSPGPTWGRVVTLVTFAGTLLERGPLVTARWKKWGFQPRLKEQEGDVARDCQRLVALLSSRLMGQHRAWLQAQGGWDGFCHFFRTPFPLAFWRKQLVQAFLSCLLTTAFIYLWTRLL

Row | Structure (SMILES) | displacement
1 | CCc1ccccc1NC1=C(Cl)C(=O)N(c2ccccc2Cl)C1=O | 1.9%
2 | Fc1ccc(NC(=S)N2CCN(c3cccc(C(F)(F)F)c3)CC2)cc1 | 0.8%
3 | CC(C(=O)Nc1ccc(NC(=O)c2ccco2)cc1)(c1ccccc1)c1ccccc1 | -5.1%
4 | COc1ccc(CCNC2CC(=O)N(c3ccc(C)cc3)C2=O)cc1OC (centres undefined) | 2.4%
5 | C=CCNC(=S)N1CCN(CCNC(=O)C(=O)Nc2ccc(C)cc2)CC1 | 5.5%
6 | Cc1ccccc1CNC(=O)c1ccc(CN(c2ccccc2)S(C)(=O)=O)cc1 | 3.9%
7 | O=C(Nc1ccccc1OC(=O)c1ccc(Cl)cc1)c1ccc(Cl)cc1 | 19.1%
8 | Cc1ccc(-c2csc(NC(=O)c3ccc([N+](=O)[O-])cc3Cl)n2)c(C)c1 | -7.2%
9 | CCOc1cc(/C=N\NC(=O)c2ccc([N+](=O)[O-])cc2)cc(Br)c1O | 4.8%
10 | CNC(=O)C(=O)NCCc1ccccc1 | 6.5%
11 | FC(F)(F)c1cc(/C=C/c2ccccc2)n[nH]1 | 15.5%
12 | CCOc1ccc(CNCc2ccccc2OC)cc1 | -16.7%
13 | COc1cc(/C=C/C(=O)O)cc(S(=O)(=O)NCCCC(=O)O)c1OC | 2.4%
14 | Cc1ccc(C(=O)Nc2ccc(Oc3ccccc3)cc2)o1 | -2.2%
15 | CN1CCC(N(C)S(=O)(=O)c2ccccc2[N+](=O)[O-])CC1 | 15%
16 | Cc1ccc(OCC(=O)Nc2ccc(Cl)cn2)c(Br)c1 | 9.2%
17 | CCOC(=O)C1=C(C)NC2=C(C(=O)CC(c3ccccc3)C2)C1c1ccc(C)o1 (centres undefined) | 8%
18 | O/N=C\c1ccc(-c2ccc(Cl)c(Cl)c2)o1 | -7.3%
19 | O=C(Nc1nc(-c2ccc(Cl)cc2)cs1)c1ccc(S(=O)(=O)N2CCCCC2)cc1 | -9.5%
20 | Cc1cc(Cl)ccc1OCC(=O)NNC(=O)CC#N | -22.6%
21 | CC(C)c1ccc(/C=C2/SC(=S)N(CN3CCOCC3)C2=O)cc1 | 4.5%
22 | O=C(N/N=C\c1c(O)ccc2ccccc12)c1cccc2cc[nH]c12 | 34.1%

Row | Structure (SMILES) | displacement
23 | COc1ccccc1N1CCN(C(=O)COc2ccc(Cl)cc2C)CC1 | -4.5%
24 | C=CCn1c(CSc2nc3ccccc3s2)n[nH]c1=S | 17.3%
25 | COc1ccc(C2C(C#N)=C(N)Oc3cc(N)ccc32)cc1 (centres undefined) | 0%
26 | Cc1ccc(OCC(=O)Nc2ccccc2Cl)c(C)c1 | 10.7%
27 | COc1cccc(N2C(=O)C(=O)/C(=C(\O)c3ccccc3)C2c2ccc([N+](=O)[O-])cc2)c1 (centres undefined) | 4.1%
28 | COc1ccc(OC)c(NC(=O)CN(CCc2ccccc2)S(=O)(=O)c2ccccc2)c1 | 0.7%
29 | COC(=O)C(NC(C)=O)C12CC3CC(CC(C3)C1)C2 (centres undefined) | 4.2%
30 | CC1=C(C(=O)OC2CCCC2)C(c2ccccc2C(F)(F)F)C2=C(CCCC2=O)N1 (centres undefined) | 2.6%
31 | CC1(C)Cc2ccccc2/C(=C/SC(=N)N)N1 | -16.6%
32 | COc1ccc(Oc2ccc(N)cc2)cc1 | 14%
33 | CCOc1ccccc1N(CC(=O)Nc1ccccc1Cl)S(=O)(=O)c1ccccc1 | -3.2%
34 | Cc1cc(=O)[nH]c(SCCOc2ccccc2C)n1 | 11.6%
35 | COc1ccc(CCNC(=O)c2cnccn2)cc1 | -3%
36 | CC(=O)Oc1ccc(C(=O)Nc2cccc(C(=O)NCC(C)C)c2)cc1 | 5.6%
37 | c1ccc(-c2nnc(-c3ccccc3)c3nsnc23)cc1 | 5.3%
38 | Cc1ccc(N2NC(=O)/C(=C/c3ccc4c(c3)OCO4)C2=O)cc1Cl | 16.8%
39 | Cc1ccc(N2NC(=O)/C(=C/c3ccc(N(C)C)cc3)C2=O)cc1C | 9.3%
40 | Cc1cc(NC(=O)c2ccccc2C)ccc1NC(=O)c1cccs1 | -0.6%
41 | Cc1sc(C2C(C#N)=C(N)OC3=C2C(=O)CC(C)(C)C3)cc1[N+](=O)[O-] (centres undefined) | -8.4%
42 | CCC(=O)N(CCC1(c2ccccc2)CCOC(C)(C)C1)c1ccc(OC)c(OC)c1 (centres undefined) | -14.8%
43 | O=C(CSCC(=O)Nc1ccc2ccccc2c1)Nc1cccc([N+](=O)[O-])c1 | 2.7%
44 | O=C1c2ccccc2CCC1C1(O)C(=O)Nc2ccccc21 (centres undefined) | 9.2%

Row | Structure (SMILES) | displacement
45 | CCOC(=O)C(O)C1CCc2c([nH]c3ccc(C)cc23)C1=O (centres undefined) | 6.5%
46 | Cc1ccc2nc(-c3ccc(C)c(NC(=O)COc4ccc(Cl)cc4C)c3)oc2c1 | -8.3%
47 | COc1ccc(Cl)cc1NC(=O)CN1C(=O)c2ccccc2C1=O | 6.6%
48 | CCC(C(=O)Nc1nc(-c2ccc(F)cc2)cs1)c1ccccc1 (centres undefined) | 7.7%
49 | CC(C)(C)C1(C)OC(O)(C(Cl)Cl)CC1=O (centres undefined) | -8.5%
50 | COc1ccc(-c2nc3c(n2O)CCc2nonc2-3)cc1OC | 7.1%
51 | Cc1ccc(N2C(=O)NC(=O)/C(=C/c3cccc(OCC(=O)O)c3)C2=O)cc1 | -19.8%
52 | CCOC(=O)c1ccccc1NC(=O)c1cnccn1 | -36.5%
53 | Cc1ccccc1OCC(=O)Nc1ccc(Cl)cc1 | 12.8%
54 | Clc1ccc(/C=N/Nc2nc(N3CCOCC3)nc(N3CCOCC3)n2)c(Cl)c1 | -9.9%
55 | COc1ccc(CC(=O)NC2CCCC2)cc1 | -9.7%
56 | Clc1ccc(CSc2nnc(-c3ccc(Br)cc3)o2)c(Cl)c1 | 10.6%
57 | Cc1c(Cc2ccccc2)c(=O)oc2cc(O)ccc12 | -38.1%
58 | COC(=O)C1=C(C(=O)OC)SC(=C2C(=S)C(C)(C)N(C(=O)Cc3ccccc3)c3c(OC)cccc32)S1 | -4.5%
59 | COc1ccc(C(=O)O)cc1S(=O)(=O)N1CCC(C)CC1 | -4%
60 | O=C(Cc1ccccc1)Nc1nnc(COc2ccc(Cl)cc2Cl)s1 | 10.9%
61 | COc1ccc(-c2cc(C(=O)NCc3ccc(F)cc3)c3ccccc3n2)cc1OC | 7.5%
62 | O=C(Cn1c(O)c(N=NC(=O)c2ccc([N+](=O)[O-])cc2)c2ccccc21)Nc1ccccc1 | 2.6%
63 | Cc1c2n(c3ccccc13)CCNC2c1ccccc1 (centres undefined) | 14.5%
64 | O=C(O)C(CO)NC(=O)C(F)(F)C(F)(F)C(=O)NC(CO)C(=O)O (centres undefined) | 2%
65 | COC(=O)c1ccccc1NC(=O)Nc1ccc(Cl)cc1Cl | 9%
66 | O=c1cc(N2CCN(Cc3ccccc3)CC2)c2ccccc2n1-c1ccccc1 | -0.6%

Row | Structure (SMILES) | displacement
67 | Cc1cc(C)nc(NS(=O)(=O)c2ccc(N/C=C\C(=O)c3ccc4ccccc4c3)cc2)n1 | 14.7%
68 | COc1ccc2c(c1)CCC1=C2NC(=S)NC1c1ccc(N(C)C)cc1 (centres undefined) | -17.6%
69 | Cc1ccc(-c2nc(N/N=C/c3ccncc3)c3ccccc3n2)cc1 | 8.4%
70 | Cc1ccc(C(=O)Nc2sc3c(c2C#N)CCC(C)C3)cc1C (centres undefined) | 3.3%
71 | Cc1cc(C)n(C(=O)CNC(=O)COc2ccccc2C)n1 | 10.5%
72 | Cc1ccc(OCC(O)CN2C(C)(C)CC(O)CC2(C)C)c(C)c1 (centres undefined) | 6.8%
73 | O=C(Nc1nnc(SCc2ccc(F)cc2)s1)c1ccccc1Br | -7.2%
74 | NC(=O)C1CCN(S(=O)(=O)c2ccc(Cl)cc2)CC1 | 12.2%
75 | O=C(NCCN1CCCCC1)c1cc2ccccc2o1 | 10.5%
76 | COc1cc(C2C3=C(CC(C)(C)CC3=O)NC3=C2C(=O)CC(C)(C)C3)ccc1OCc1ccccc1 | -18%
77 | O=C(Nc1ccc(OC(F)(F)F)cc1)c1ccccc1I | -5.9%
78 | CCOC(=O)C1=C(c2ccccc2)S/C(=C2/C(=S)C(C)(C)N(C(C)=O)c3ccc(OC)cc32)S1 | 2.4%
79 | CCc1ccccc1NC(=O)c1ccc2c(c1)OCO2 | 3.3%
80 | O=C(CN(c1ccc(Br)cc1)S(=O)(=O)c1ccccc1)NC1CC2CCC1C2 (centres undefined) | -0.2%
81 | Cc1ccc(CNC(=O)C(=O)Nc2cc(Cl)ccc2C)cc1 | 3.9%
82 | C=CCc1ccccc1OCC(=O)NN | 7.4%
83 | NC(=O)N/N=C1\c2ccccc2-c2c(C(N)=O)cccc21 | 1.9%
84 | O=C1CC(c2ccc(Cl)cc2)CC2=C1C(c1ccccc1C(F)(F)F)Nc1ccccc1N2 (centres undefined) | 15.5%
85 | O=C1CC(c2ccc(Cl)cc2)c2cc(Br)c3ccccc3c2N1 (centres undefined) | -10.4%
86 | O=C(NNc1nc(-c2ccccc2)cc(-c2ccc(F)cc2)n1)c1cccc([N+](=O)[O-])c1 | 7.2%
87 | Cc1ccc(C(=O)N2CCN(c3ccc(Cl)cc3[N+](=O)[O-])CC2)cc1 | 12.8%
88 | COc1ccc(NC(=O)CCC2CCCCC2)cc1 | 15.9%

Row | Structure (SMILES) | displacement
89 | O=C(Nc1ccc(Cc2ccncc2)cc1)c1cc(Br)ccc1I | -13.6%
90 | O=C(Nc1ccc(-c2nc3ccccc3o2)c(O)c1)c1cccnc1 | 33.2%
91 | CSCCC(NC(=O)/C(=C\c1ccc(Cl)cc1)NC(=O)c1ccccc1)C(=O)O (centres undefined) | -21.2%
92 | COc1ccccc1NC(=O)c1cc(Nc2ccc(F)c(F)c2)nc2ccccc12 | 19.9%
93 | O=C(c1cc(Cl)ccc1Cl)N(Cc1ccccc1)c1ccccn1 | 11%
94 | Cc1cc(Br)ccc1S(=O)(=O)n1ccnc1C | 9%
95 | COc1ccc(C(c2cc(C(C)(C)C)c(O)c(C(C)(C)C)c2)N2CCOCC2)cc1 (centres undefined) | -7.4%
96 | CCCOC(=O)c1ccc(NC(=O)c2cccc3ccccc23)cc1 | -24.6%
97 | COc1ccc(NC(=O)COc2ccc(-c3ccccc3)cc2)c([N+](=O)[O-])c1 | 34.5%
98 | Brc1ccc(CN2CCN(C3CCN(Cc4ccccc4)CC3)CC2)cc1 | -15.5%
99 | O=C(CSc1nc2sc3c(c2c(=O)[nH]1)CCCC3)N1CCOCC1 | -17.8%
100 | CC(=O)c1ccc(Nc2nc(NCCO)nc(OC(C(F)(F)F)C(F)(F)F)n2)cc1 | 18.1%
101 | O=C(Nc1nc(-c2ccc(Cl)cc2Cl)cs1)c1cccc(Cl)c1 | 1.6%
102 | CC(C)c1ccc(N=Cc2ccc(OC3CSC3)cc2)cc1 | 2.6%
103 | O=C1NC(=Nc2ccc(O)cc2)S/C1=C/C(Cl)=C/c1ccc([N+](=O)[O-])cc1 | 9.5%
104 | CCOc1ccc2nc(SC3CC(=O)N(c4ccc(OC)cc4)C3=O)sc2c1 (centres undefined) | -4%
105 | O=C1c2ccc(Oc3ccc([N+](=O)[O-])cc3)cc2C(=O)N1CCCO | 8.6%
106 | Clc1ccc(/C=C/C=Nc2cccc(-c3nc4ccccc4o3)c2)cc1 | 25.8%
107 | COc1ccc(S(=O)(=O)Nc2ccc(I)cc2)cc1OC | 14.1%
108 | Cc1c(NC(=O)c2ccc3ccccc3n2)c(=O)n(-c2ccccc2)n1C | 13.8%
109 | CC1(C)CC(N2CN=C(N)N(C#N)C2)CC(C)(C)N1 | 7.3%
